The record followed here is US20240182561A1 (Regeneron, published 2024).

Assay [1] has as its target T1, human CACNG1 expressed on cells (human, UniProt Q06432 1-222). As to the kind of experiment: cell-based or functional assay.
Assay [2] deals with T1, human CACNG1 expressed on cells. Briefly: cell-based or functional assay. The source holds these as a separate data set.
T1 sequence (Q06432 whole entry): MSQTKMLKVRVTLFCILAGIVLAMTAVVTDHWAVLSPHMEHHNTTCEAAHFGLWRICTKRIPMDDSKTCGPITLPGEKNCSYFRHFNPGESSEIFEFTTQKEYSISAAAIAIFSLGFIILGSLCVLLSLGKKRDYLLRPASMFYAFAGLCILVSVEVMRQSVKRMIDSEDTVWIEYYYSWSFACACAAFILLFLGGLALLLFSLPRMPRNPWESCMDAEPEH

B1: REGN14574-M3004 (antibody, human IgG1, kappa)
heavy chain: QVQLVESGGGVVQPGTSLRLSCAASGFTFSSYGMHWVRQAPGKGLEWVAVIWIDGSNKYYADSVKGRFTISRDNSKNTLYLQMNSLRAEDTAVYYCARRGGIVVAAPFDYWGQGTLVTVSS[human IgG1 constant region with changes omitted here]
light chain: [about 100 residues omitted here][about 120 residues omitted here]
modifications: N297Q; DHT linker-payload M3004 conjugated, DAR about 4
Consider B1, for which the “EC50 of androgen receptor luciferase reporter activation (RLU) by the DHT conjugate REGN14574-M3004 in hCACNG1.AR.Luc LNCaP cells, 72 hours; concentration adjusted for DAR” value in assay [1] is 13.2 nM. The “EC50 of androgen receptor luciferase reporter activation (RLU) by the DHT conjugate REGN14574-M3004 in hCACNG1.AR.Luc LNCaP cells, 24 hours; concentration adjusted for DAR” value in assay [2] came out at 12.8 nM.
